# “And” between values parts separate entries of the source, which are not always exact repeats. Identical values can stand only once.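 Cultured in 96-well plates, cells were exposed to test compound for 48 hours across five concentrations. The concentration for 50% growth inhibition is given as GI50. TGI: total growth inhibition.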 The source made the active and inactive calls. Cut-off read from the data, not from the text of the source: active = GI50 below about 0.43 µM; inactive = the rest.
# Test system: NCI-H322M lung
# Assay: growth of human tumour cells (NCI), 48 h
SMILES,TGI,GI50,outcome
COc1cc2c(cc1OC)C(Cc1ccc(Oc3cc(CC4c5cc(OC)c(OC)cc5CCN4C)ccc3O)cc1)N(C)CC2 (configuration not stated),> 100 µM,,
O=C(CC(Cl)(Cl)C(Cl)(Cl)Cl)c1ccccc1,26 µM,,
CCOC(=O)C1(c2ccccc2)CCCNCC1 (configuration not stated),> 100 µM,,
CC(=O)/C=C\C1CC2C=CC1C2 (configuration not stated),> 100 µM,,
CC(=O)OC1Oc2ccc(C)cc2-c2oc(=O)c(-c3cc4ccccc4oc3=O)cc21 (configuration not stated),22.6 µM,8.19 µM,
CC(C)(C)N/N=C(\C(=O)Nc1ccc([N+](=O)[O-])cc1[N+](=O)[O-])c1nc2ccc([N+](=O)[O-])cc2[nH]c1=O,> 100 µM,,
CN(C)CCCNC(=O)N/N=C\c1cccc2ccccc12,> 10 µM,,
COCOc1cc(OC)ccc1C/C=N/O,> 100 µM,,
N#C/C(=C\c1cc(Br)c(O)c(Br)c1)c1ccccn1,> 100 µM,,
COc1ccc(Cc2nc3cc([N+](=O)[O-])ccc3n2C[C@@H]2CCCN3CCCCC23)cc1 (some centres not stated),57.7 µM,,
[N-]=[N+]=Nc1ccc2c(c1)Sc1ccccc1N2CCCCN1CCN(Cc2ccc(C(=O)c3ccccc3)cc2)CC1,> 92.1 µM,,
Cc1n[nH]c(=O)n1-c1cccnc1,> 100 µM,,
CC(C)=NNc1ncnc2c1ncn2C1OC(CO)C(O)C1O (configuration not stated),,0.376 µM,
Oc1ccc(CCl)c2cccnc12,> 100 µM,20 µM,
c1cc2sc1CSCCSCCSC2,> 100 µM,,
CC(C)OP(=O)(c1ccccc1)c1ccc2c(c1)OCCOCCOCCOCCO2 (configuration not stated),> 100 µM,,
O=C1C(c2ccccc2)=[N+]([O-])c2cc([N+](=O)[O-])c(/C(Cl)=C/c3ccccc3)cc21,> 100 µM,,
O=C(c1ccccc1)c1nc2ccc(Cl)cc2c2c1Cc1ccccc1-2,> 100 µM,,
COc1cc(OC)cc(C2C(C#N)=C(N)Oc3c2ccc2ccc(O)cc32)c1 (configuration not stated),13.3 µM,< 0.01 µM,
O=c1ccn(C2OC(COC3CCCCO3)C(OC3CCCCO3)C2OC2CCCCO2)c(=O)n1-c1ccccc1 (configuration not stated),> 100 µM,,
Cc1ccc(C)c(COc2cc(NC(=O)c3ccc4c(c3)OCO4)ccc2N(C)S(C)(=O)=O)c1,> 100 µM,0.43 µM,
c1ccc(CSc2nnc3c4c5c(sc4nc(-c4cccnc4)n23)CCCCCC5)cc1,20 µM,5.57 µM,
Cc1cc(C)nc(NS(=O)(=O)c2ccc(NC(=O)c3ccc(Cl)c4c(Nc5ccc(S(=O)(=O)Nc6cc(C)on6)cc5)c5ccccc5nc34)cc2)n1,30.6 µM,,
CN(CCNC(=O)c1nn(-c2ccccc2)c2c1ccc1ccccc12)CCNC(=O)c1nn(-c2ccccc2)c2c1ccc1ccccc12,13.2 µM,,
O=C(Nc1ccc(Oc2cccc(Cl)c2)c(Cl)c1)c1cnccn1,> 50 µM,0.896 µM,

SMILES,TGI,GI50,outcome
O=C1CC2(CCC(O)(c3cccc4ccccc34)C(C(=O)c3cccc4ccccc34)C2)C(=O)c2ccccc2N1 (configuration not stated),> 100 µM,,
CCC[C@H](N[C@H]1CCc2cc(F)cc(F)c2C1)C(=O)Nc1cn(C(C)(C)CNCC(C)(C)C)cn1,> 100 µM,32 µM and 42.3 µM,
COC1/C=C/C(C)C(OC)CC(O)/C=C/C(C)C(C(C)C(OC)C(C)CCC(=O)C(C)C(C/C=C/N(C)C=O)OC)OC(=O)/C=C/C=C(\C)CC(OC)CC2=CC(=O)O[C@@H](C(C)C(OC)C1)[C@H]2O (some centres not stated),> 9 µM,,
CC1(C)CC(=O)c2c(nc3c(ccc4ccccc43)c2-c2ccc(NC(=O)CCCC(=O)Nc3ccc(-c4c5c(nc6c4ccc4ccccc46)CC(C)(C)CC5=O)cc3)cc2)C1,> 100 µM,,
Cc1nc2ccccc2c(/C=C/c2ccc(Cl)cc2)c1C(=O)/C=C/c1ccc(F)cc1,2.82 µM,1.47 µM,
O=C1CCC(C(=O)O)C2=C1CCCC2 (configuration not stated),> 100 µM,,
C[C@H]1CC[C@@H]2[C@@H](C)C[C@H]3[C@@H]4C(C)(C)OC(=O)[C@]4(C)C(=O)[C@@]23C1=O,> 100 µM,,
O=c1cc(-c2ccc(O)c(O)c2-c2c(O)cc(O)c3c(=O)cc(-c4ccc(O)c(O)c4-c4c(O)cc(O)c5c(=O)cc(-c6ccc(O)c(O)c6)oc45)oc23)oc2cc(O)cc(O)c12,,,inactive
O=C1Nc2ccccc2C1(c1c[nH]c2ccccc12)c1c[nH]c2ccccc12,5.16 µM,2.09 µM,
CCc1nc(N)nc(N)c1-c1ccc(Cc2ccccc2)c([N+](=O)[O-])c1,> 61.9 µM,,
CC(C)(C)C(=O)CC1(O)C=C(O)C(O)(CC(=O)C(C)(C)C)O1 (configuration not stated),> 100 µM,,
O=[N+]([O-])c1ccc2scc3c4ccccc4nc-3c2c1,3.85 µM,1.89 µM,
CCOC(=O)C1(C(=O)OCC)OC(=O)NC2=C1CCCC2,> 100 µM,,
Clc1ccc(CSC2=NCCN2)cc1Cl,48.3 µM,,
CCOc1ccc2nc3cc(N=Nc4ccc(N)nc4N)ccc3c(N)c2c1,6.42 µM,,
CC(=O)NC1=C(C)C(=O)c2c(nc3n2CCC3OC(=O)c2ccccc2)C1=O (configuration not stated),13.4 µM,,
O=C(O)c1sccc1O,> 100 µM,47.8 µM,
COC(=O)C(CCC1CC(OC)N(C(=O)OCc2ccccc2)C1)N=Cc1ccccc1 (configuration not stated),> 100 µM,,
COc1cc2c(c(OC)c1OC)-c1ccc(SC)c(=O)cc1[C@@H](OC(=O)c1ccncc1)CC2,> 100 µM,,
COc1cc(C(C)c2ccc3c(ccn3C)c2)cc(OC)c1OC (configuration not stated),> 100 µM,0.0448 µM,
O=C1[C@H]2ON(c3ccccc3)C(c3ccc(Cl)cc3Cl)[C@H]2C(=O)N1c1ccc(Cc2ccc(N3C(=O)[C@@H]4ON(c5ccccc5)C(c5ccc(Cl)cc5Cl)[C@@H]4C3=O)cc2)cc1 (some centres not stated),> 100 µM,,
Cc1c2cnccc2c(C)c2c1c1ccccc1n2CC1CO1 (configuration not stated),5.74 µM,,
CNC(=S)NC(=S)N(C)C,> 100 µM,,
O=Cc1c(Cn2ccnc2)c2cc([N+](=O)[O-])ccc2n1Cc1ccccc1,> 100 µM,,
COC1=C(OC)C23CCc4ccc(OC)c(O)c4C2(CCN3)CC1=O (configuration not stated),> 100 µM,,

SMILES,TGI,GI50,outcome
Cc1cc(-c2c(Br)cc(C(=O)O)n2C)on1,> 100 µM,,
C=C(C)C(CC=C(C)C)Cc1c(O)cc(OC)c2c1OC(c1ccc(O)cc1O)C(O)C2=O (configuration not stated),34.1 µM,,
CC/C=C\C/C=C\C[C@H]1C/C=C2/C(=O)C=C[C@@H]2C/C=C\CCC(=O)O1,8.3 µM,4.08 µM,
[N-]=[N+]=NCCCn1c2c(c3ccccc3c1=O)C(=O)c1cc(Br)ccc1-2,> 100 µM,> 100 µM,
COc1ccc(OC)c(NC(=O)c2c(Cl)c(Cl)c(Cl)c(Cl)c2-c2nc3ccccc3[nH]2)c1,> 100 µM,,
O=C1CCC(c2nc3cc(Cl)ccc3o2)C(=O)N1 (configuration not stated),> 100 µM,,
O=c1[nH]c2ccc(N=Cc3c(O)[nH]c4ccccc34)cc2[nH]1,> 25 µM,> 25 µM,
N=C1S/C(=C/c2ccc(-c3ccc4c(c3)C(=O)NC4=O)o2)C(=O)N1c1ccc(Br)cc1,> 100 µM,> 100 µM,
CC(=O)Nc1ccc(NNc2cc(=O)n(C)c(=O)[nH]2)cc1,26.5 µM,,
N#Cc1ccc(Sc2ccccc2)cc1C#N,> 100 µM,,
COc1cc2c(cc1OCCCCCN1CCN(c3cc(=O)oc4ccccc34)CC1)N=C[C@@H]1CCCN1C2=O,1.94 µM,0.625 µM,
COc1ccc(-c2c(C#N)c(N)nc3c2COc2ccc(F)cc2-3)cc1OC,41.5 µM,15.7 µM,
C=CCOC(C)n1c(C)c(Br)c(=O)[nH]c1=O (configuration not stated),> 100 µM,,
c1ccc(CSSSCc2ccccc2)cc1,> 100 µM,,
COCCNCCc1cccc(Nc2ncc3c(n2)-c2ccccc2C(c2ccccc2F)C3)c1 (configuration not stated),3.06 µM and 3.05 µM,1.64 µM and 1.65 µM,
COc1ccc(C(O)c2cc3c(N)c(C(=O)Nc4cccc(OC)c4)sc3nc2C)cc1 (configuration not stated),> 50 µM,> 50 µM,
NN/C(=N\S(=O)(=O)c1ccc(-c2ccccn2)s1)Nc1ccc(Cl)cc1,> 100 µM,,
CCC1(O)C(=O)OCc2c1cc1n(c2=O)Cc2cc3ccc(CO)cc3nc2-1 (configuration not stated),36.1 µM,,
Oc1ccc(-c2cn3ccsc3n2)cc1O,> 100 µM,> 100 µM,
CC1(C(=O)O)CCC(C(=O)O)C(C)(C)O1 (configuration not stated),> 100 µM,,
COc1cccc2cc(N(C)c3ncnc4ccccc34)ccc12,17.9 µM,< 0.0136 µM,
CC(O)(CCCCCl)c1nc2ccccc2s1 (configuration not stated),> 100 µM,,
CCCCCCCCCCCC[C@H](O)[C@H]1CC[C@H]([C@H](O)CCCC[C@H](O)CCCCC[C@@H](O)CC2=C[C@H](C)OC2=O)O1,29.1 µM,14.8 µM,
O=C(O)CC1OCC=C2C[N+]3([O-])CCC45c6ccccc6NC4C1C2CC53 (configuration not stated),> 100 µM,,
FC(F)(F)c1ccc(CNc2ccc(Cc3c[nH]c4ncc(Cl)cc34)cn2)cn1,30.8 µM and > 10 µM,11.3 µM and > 10 µM,

SMILES,TGI,GI50,outcome
O=C(NC1C2CC3CC(C2)CC1C3)c1ccncn1 (configuration not stated),> 100 µM,,
C/C(CC(=O)Nc1ccc(C)c(C)c1)=N\NC(N)=S,> 100 µM,,
CC[C@]1(Cc2ccc(OC)c(OC)c2)[C@@H]2C[C@@H](C(=O)OC)ON2O[C@H](OC2CCCC2(c2ccccc2)c2ccccc2)[C@@H]1OC(C)=O (some centres not stated),> 100 µM,,
O=C(CNc1c(Cl)cccc1Cl)Nc1ccc(-c2nc3ccccc3s2)cc1,4.36 µM,2.07 µM,
CCCC(=O)c1ccc2c(ccc(=O)n2C)c1,> 100 µM,,
Nc1ncnc2nc(N3CCN(CCO)CC3)[nH]c12,> 100 µM,,
O=C(O)COc1cc(-c2ccccc2)nc2ccc(F)cc12,> 100 µM,,
COc1cnc2c(c1)C(=O)c1c-2n(CCCBr)c(=O)c2cc([N+](=O)[O-])ccc12,5.13 µM,0.358 µM,
O=c1[nH]nc(Cc2ccccc2)n1O,> 100 µM,,
O=[N+]([O-])c1ccc(N=Nc2c(O)[nH]c3ccc(Br)cc23)cc1,37.1 µM,,
N.N.NCCCCCCN.O=C([O-])CCl.O=C([O-])CCl.O=C([O-])CCl.O=C([O-])CCl.[Pt+4].[Pt+4],> 50 µM,> 50 µM,
O=C(/C=C/c1cccc([N+](=O)[O-])c1)c1cccnc1,> 100 µM,,
CC(=NCC(=O)O)c1ccccc1,> 100 µM,,
C/C=C\C(CC(=O)O)CN1CCC2=C(C1)C(S(=O)(=O)C(F)(F)F)c1ccccc12 (configuration not stated),> 100 µM,,
CCC(=C/[C@H](C)C/C=C/C(C)=C/[C@@H](C)C(=O)[C@@H](C)[C@H](O)[C@@H](C)CC)/C=C/[C@@H]1OC(=O)C=C[C@@H]1C,8.16 µM,< 0.005 µM,
N#C/C(=C\c1c(Cl)cccc1Cl)c1ccccc1,> 100 µM,,
Cn1nc(N)nc1N=S(C)(C)=N,> 100 µM,,
CCC[CH2][Sn]([CH2]CCC)([O]C(=O)c1ccc(C)c(N)c1)[O]C(=O)c1ccc(C)c(N)c1,2.89 µM,1.55 µM,
Nc1c(C(=O)Nc2ccccn2)sc2nc3c(cc12)CCCCC3,> 50 µM,3.99 µM,
O=c1c2ccccc2n2c(=S)[nH]nc2n1-c1ccccc1,> 100 µM,,
O=[N+]([O-])c1nccn1COCCI,> 100 µM,,
Nc1nc(-c2ccccc2)cc(-c2ccccc2O)n1,> 100 µM,,
